The results in this text go back to the supplement of paper PMC4723716.

Molecules are shown by their SMILES. ± gives the uncertainty stated by the source. Over roughly 9,900 compounds, “viability index relative to DMSO control” has its median near 1; the lowest 2% begin near 0.85. This is one part of the list.

In the assay the test system is Plasmodium falciparum NF54 stage V gametocytes. As to the kind of experiment: viability index relative to DMSO control (fraction); higher = less gametocyte killing. The settings on record: 2.5 µM, library set: Broad Institute DOS, incubation time: 72 h. In short, it runs like this:
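Compound at 2.5 µM was incubated for 72 hr at 37°C under low oxygen with P. falciparum NF54 stage V gametocytes (0.75% gametocytemia, 1.25% hematocrit, 10 µl, serum-free screening medium) in 1,536-well plates. Staining used 3 µl of 2.5 µM MitoTracker Red CMXRos plus 0.13% saponin for one to two hours, and red particles of 20–70 µm2 were counted in one imaged field per well. Each viability index is that count relative to the plate mean of solvent-only wells.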
`CO[C@H]1CN(C)C(=O)c2ccc(NC(=O)Nc3c(C)noc3C)cc2OC[C@H](C)N(CCC(F)(F)F)C[C@H]1C` gave a viability index of 0.984 ± 0.035.

Turning to `Cc1ccc(S(=O)(=O)N2CC[C@H]3[C@H](CO)Nc4ccc(-c5cccc(C(=O)N(C)C)c5)cc4[C@H]32)cc1`, the viability index was found to be 0.7 ± 0.018.

`Cc1ccccc1-c1ccc2c(c1)O[C@@H](CN(C)C(=O)Nc1ccc(C(F)(F)F)cc1)[C@@H](C)CN([C@H](C)CO)S2(=O)=O` had a viability index of 0.97 ± 0.026.

As for `CC(C)COC(=O)N(C)C[C@H]1OCc2ccccc2-c2ccccc2C(=O)N([C@@H](C)CO)C[C@H]1C`, the viability index is 1.03 ± 0.21.

Compound `COc1cccc(CN2[C@@H](CO)[C@H](c3ccccc3)C23CN(C(=O)C2CCCCC2)C3)c1` displayed a viability index of 1.06 ± 0.057.

`Cc1noc(C)c1NC(=O)N(C)C[C@H]1OCc2cnnn2CCCC(=O)N([C@@H](C)CO)C[C@@H]1C` gave a viability index of 1.09 ± 0.028.

With `C[C@@H]1CN([C@@H](C)CO)C(=O)CCCn2nncc2CO[C@H]1CN(C)Cc1ccccc1C(=O)O`, the viability index amounted to 1.01 ± 0.073.

On to `CCS(=O)(=O)N1CC(=O)N2[C@H](CO)[C@@H](c3ccc(C4=CCCCC4)cc3)[C@@H]2C1`, for which the viability index was determined as 1.1 ± 0.046.

`CO[C@@H]1CN(C)C(=O)c2ccc(NS(C)(=O)=O)cc2OC[C@H](C)N(C(=O)CN(C)C)C[C@@H]1C` had a viability index of 0.99 ± 0.025.

For `COc1ccc2c3c([C@H](CO)N(C[C@]33CCN(Cc4ccccn4)CC3)C(=O)Nc3ccc(F)cc3)n(C)c2c1`, the viability index was determined as 1.02 ± 0.018.

Turning to `COc1ccccc1CN1[C@H](CO)[C@H]2c3ccccc3N(C(=O)C3CCOCC3)C[C@H]21`, the viability index amounted to 1 ± 0.06.

Consider `CCS(=O)(=O)Nc1ccc2c(c1)C(=O)N(C)[C@@H]1CC[C@H](CC(=O)N[C@H]3CCN(Cc4ccccc4)C3)O[C@H]1CO2`, for which the viability index stood at 1.09 ± 0.15.

With `O=C(c1cnccn1)N1CC(=O)N2[C@H](CO)[C@H](c3ccc(/C=C/c4ccccc4)cc3)[C@@H]2C1`, the viability index came to 1.06 ± 0.063.

In turn, `COc1ccc([C@@H]2C/C=C\C[C@@H](c3cccc(Cl)c3)NC(=O)[C@@H](c3ccccc3)CC(=O)N2)c(OC)c1` had a viability index of 1.03 ± 0.054.

The compound `Cc1noc(C)c1S(=O)(=O)N(C)C[C@@H]1OCc2cnnn2CCCC(=O)N([C@@H](C)CO)C[C@H]1C` came in with a viability index of 0.975 ± 0.1.

Compound `C[C@H]1C/C=C/C[C@@H](c2ccccc2)NC(=O)[C@H](C)N(C)C(=O)c2ccccc2O1.C[C@H]1C/C=C\C[C@@H](c2ccccc2)NC(=O)[C@H](C)N(C)C(=O)c2ccccc2O1` displayed a viability index of 1.04 ± 0.0069.

`C[C@H](CO)N1C[C@H](C)[C@@H](CN(C)S(C)(=O)=O)OCCCC[C@H](C)Oc2ccc(NC(=O)NC3CCCCC3)cc2C1=O` gave a viability index of 1.11 ± 0.13.

As for `COc1cccc(CN2C[C@]3(CCN(C)CC3)c3c([nH]c4cc(OC)ccc34)[C@H]2CO)c1`, the viability index was found to be 0.989 ± 0.14.
